Results reported in US20230340048A1.

Tests used:
[1] = target: TGFβ3 (UniProt P10600); assay: cell-based or functional assay
[2] = target: TGFβ1 (UniProt P01137); assay: cell-based or functional assay
Sequence of UniProt P01137 (P01137 279-390 limits assumed): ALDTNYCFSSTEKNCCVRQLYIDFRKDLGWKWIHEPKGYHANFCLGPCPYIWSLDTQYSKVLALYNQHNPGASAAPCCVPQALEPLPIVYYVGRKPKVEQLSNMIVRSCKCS

Sequence of UniProt P10600 (P10600 301-412): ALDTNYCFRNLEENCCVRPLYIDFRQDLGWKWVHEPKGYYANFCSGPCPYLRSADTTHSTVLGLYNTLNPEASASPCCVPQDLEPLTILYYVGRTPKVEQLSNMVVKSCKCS

Average IC50, A549/IL-11 release assay [1]: 0.0375 nM | IC50 Ratio TGFβ3:TGFβ1 (average ratio), A549/IL-11 release assay [1]: 1.17 | Average IC50, A549/IL-11 release assay [2]: 0.0395 nM
B1: Protein 135 (Fc fusion)
chain: IPPHVQKSVNNDMIVTDNNGAVKFPQLCKFCDVRFSTCDNQKSCMSNCSITSICEKPQEVCVAVWRKNDENITLETVCHDPKLPYHDFILEDAASPKCIMKEKKKPGETFFMCSCSSDECNDNIIFGGGGSGGGGSGGGGSGGGPQLCKFCDVRFSTCDNQKSCMSNCSITSICEKPQEVCVAVWRKNDENITLETVCHDPKLPYHDFILEDAASPKCIMKEKKKPGETFFMCSCSSDECNDNIIFSEEYNTSNPDNGAV[human IgG1 Fc and a few adjoining residues not spelt out]
